From PMC13083723 (Patterns, 2026)
In all, about 5,400 compounds went through this assay and about 190 (3.5%) showed an effect of 50% or more. The list shows a part of the results.

Each compound was assayed on Vero-E6 (assay: primary screen, phospholipidosis by LipidTOX staining; higher = more effect of the substance). Settings: 10 µM.
Outline: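 Drug-induced phospholipidosis detected with HCS LipidTOX Red reagent in Vero-E6 cells. Compounds tested at 10 μM, with amiodarone (10 μM) as positive control and DMSO (0.1 v/v %) as vehicle.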

SMILES	result_ITMP
CC(CN1c2ccccc2Sc2ccccc21)N(C)C (stereo not drawn)	55.4%
CCOc1cc(N2CCC(O)CC2)ccc1Nc1ncc2c(n1)N(C)c1ccccc1C(=O)N2C	4.79%
O=C(CN1C2=NCCN2c2ccccc21)c1ccc(-c2ccccc2)cc1	53.9%
S=C=Nc1cccc(NC(=S)NCCCCNC(=S)Nc2cccc(N=C=S)c2)c1	-6.72%
CN(C)[C@@H]1CCc2[nH]c3ccc(NC(=O)c4ccc(F)cc4)cc3c2C1	32.9%
COc1cc(C[C@H]2C(=O)OC[C@@H]2Cc2ccc(OC)c(OC)c2)ccc1O	-0.48%
Cc1c[nH]c(-c2cnc(NCCNc3ccc(C#N)cn3)nc2-c2ccc(Cl)cc2Cl)n1	13.9%
C[C@@]12CC[C@@H]3[C@@](CC[C@H]4[C@@]3(C)CCC[C@@]4(C)C(=O)O)(CC1=O)C2	-11%
NS(=O)(=O)c1cc2c(cc1C(F)(F)F)NC(Cc1ccccc1)NS2(=O)=O (stereo not drawn)	-8.79%
C[C@@H]1CN(CC(=O)Nc2ccc3c(c2)Cc2cccc(-c4cc(=O)cc(N5CCOCC5)o4)c2S3)C[C@H](C)O1	4.24%
CC1(C)S[C@@H]2[C@H](NC(=O)Cc3ccccc3)C(=O)N2[C@H]1C(=O)[O-]	-4.24%
Cc1cc(CCC[C@H](CC(=O)NO)C(=O)N[C@H](C(=O)N[C@H](C)c2ccccc2)C(C)(C)C)ccc1-c1ccccc1	1.87%
CC(=O)N1CC[N+](C)(C)CC1	0.9%
CO[C@H]1CC[C@H](N2C(=O)CNc3ncc(-c4ccc(C(C)(C)O)nc4)nc32)CC1	-1.12%
CCc1c(-c2ccccc2)c(-c2ccccc2)nn1-c1ccccc1-c1cccc(OCC(=O)O)c1	-1.25%
CC(C)[C@H](CO)Nc1nc(Nc2cc(N)cc(Cl)c2)c2ncn(C(C)C)c2n1	7.75%
COc1cc2c(c(OC)c1OC)-c1ccc(OC)c(=O)cc1[C@@H](NC(C)=O)CC2	6.86%
O=C(c1ccc(OCCN2CCCCC2)cc1)c1c(-c2ccc(O)cc2)sc2cc(O)ccc12	74.6%
O=C1c2ccccc2-c2n[nH]c3cccc1c23	-1.5%
CNC(=O)c1ccc(N2C(=S)N(c3cnc(C#N)c(C(F)(F)F)c3)C(=O)C23CCC3)cc1F	0.9%
N#C[C@H](O[C@@H]1O[C@H](CO[C@@H]2O[C@H](CO)[C@@H](O)[C@H](O)[C@H]2O)[C@@H](O)[C@H](O)[C@H]1O)c1ccccc1	-2.54%

SMILES	result_ITMP
CC[C@@H](CO)NC(=O)[C@@H]1C=C2c3cccc4c3c(cn4C)C[C@H]2N(C)C1	13.3%
CN(C(=O)/C=C/c1ccoc1)[C@@H]1CC[C@@]2(O)[C@H]3Cc4ccc(O)c5c4[C@@]2(CCN3CC2CC2)[C@H]1O5	-1.52%
COc1ccnc(CS(=O)c2nc3ccc(OC(F)F)cc3[n-]2)c1OC (stereo not drawn)	-1.1%
CC(C)CNc1nc(-c2cccc3ncccc23)cn2c(-c3ccc(C(=O)NC4CC4)cc3)cnc12	-2.15%
N[C@@H](C(=O)O)c1ccc(O)c(C(=O)O)c1	-1.84%
CCn1cc(C(=O)O)c(=O)c2cc(F)c(N3CCNCC3)cc21	-0.64%
C[C@@H]1CCC[C@H](C)N1NC(=O)c1ccc(Cl)c(S(N)(=O)=O)c1	3.56%
c1ccc(N2CCN(CCCOc3ccc4c(c3)OCO4)CC2)cc1	-1.49%
C[C@H](/C=C/[C@H](C)C(C)(C)O)[C@H]1CC[C@H]2/C(=C/C=C3C[C@@H](O)C[C@H](O)C3)CCC[C@]12C	-0.26%
CN1C(=O)CN=C(c2ccccc2)c2cc(Cl)ccc21	-2.23%
Cc1nc2c(OCc3ccccc3)cccn2c1CC#N	-0.79%
CCOC(=O)C1=C(C)NC(C)=C(C(=O)OC)C1c1cccc([N+](=O)[O-])c1 (stereo not drawn)	-6.48%
Nc1ncnc2c1c(-c1cccc(OCc3ccccc3)c1)cn2C1CC(CN2CCCC2)C1 (stereo in doubt)	41.5%
C[N+](C)(C)CCOP(=O)([O-])OP(=O)([O-])OC[C@H]1O[C@@H](n2ccc(N)nc2=O)[C@H](O)[C@@H]1O	10.2%
Cn1cnc2nc(O)nc(O)c21	0.82%
CCC[C@@H]1C[C@@H](C(=O)N[C@H]([C@H]2O[C@H](SC)[C@H](O)[C@@H](O)[C@H]2O)[C@H](C)O)N(C)C1	-3.49%
CC(C)C[C@H](NC(=O)CNC(=O)c1cc(Cl)ccc1Cl)B1OC(=O)CC(CC(=O)O)(C(=O)O)O1 (stereo partly drawn)	-5.86%
CCCC[C@]1(CC)CS(=O)(=O)c2cc(CNC(CC(=O)O)CC(=O)O)c(OC)cc2[C@@H](c2ccccc2)N1	-0.48%
CC(C)(C)c1cc(/C=C(\C#N)C(N)=S)cc(C(C)(C)C)c1O	-2.37%
Cc1cn2c(N)c(Cl)cc(C(=O)NCC3CCN(CC(C)C)CC3)c2n1	-1.6%
CCC(=O)NCC[C@@H]1CCc2ccc3c(c21)CCO3	1.73%
